Reference: the supplement of paper PMC11417369
± gives the standard deviation of the averaged measurements. This is one part of the list.

These sequences were tested on PfAP2-G AP2 domain (GST-tagged) (assay: gcPBM binding intensity (ln(normalized median fluorescence intensity)); higher = stronger DNA binding).
Procedure, shortened: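 Binding intensity is defined as the maximum Masliner-normalised natural-log median intensity across replicate spots for either probe orientation. It was measured on an Agilent 4 × 180k array of primer-extended double-stranded 36-bp intergenic genomic probes and negative controls, to which GST-tagged P. falciparum DNA-binding domains made in E. coli were applied for 1 h in 1× PBS with 1% milk, 0.2 mg/ml BSA, 0.5% salmon testes DNA and 0.03% Triton X-100. Detection was by Alexa488 anti-GST antibody and scanning at 488 nm.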

Sequence	gcPBM binding intensity (ln)
AACAATATGGATGTATGTACACATATAGAACGTTAT [XGTACX_site7142]	11.4 ± 0.7
TATGCATTTATGCATTGTACTTTTATAGATTCCACC [XGTACX_site7121]	11.2 ± 0.96
ACATAAGACACAAATACACACAAAAATATATAACAA [CACACA_site4082]	10.2 ± 0.29
TACATGATAGATCACACACACATATAAATATATATA [CACACA_site5562]	9.91 ± 0.18
TAAAATAACTCACAAAGTACAAAAATAAGCATATGA [XGTACX_site7046]	10.7 ± 0.33
CAAAAATAAAAGAAATGTACAAAAAATAATAAAAAA [XGTACX_site6597]	10.7 ± 0.27
TAATAAACTTAAAAATGTACATATATTTATTATTAC [XGTACX_site4321]	11.2 ± 0.74
AAAATTCATAAATACACACACGCACATATATATATA [CACACA_site4227]	10.3 ± 0.4
GAATATTCAACATAATGTACAAGTATTCATTTCTTT [XGTACX_site7860]	10.8 ± 0.38
AAGAAAAAGTATCCTCTATCTTTATATAAACTATTA [TGCATGCA_negctrl_site2]	10.4 ± 0.2
ATGTATATATTTTTATGTACATATTTTTAATTTATA [XGTACX_site2982]	11.4 ± 0.87
CATACATATACTTTGTGTACATATATATATTATATA [XGTACX_site97]	11.4 ± 0.78
TAATAAAAAATTAAAAAAAATAAAAATAAAAATAAA [GTGCAC_negctrl_site78]	9.29 ± 0.18
TTTTTATTTAGCTAAGCATGCTAACGATGACACTTC [TGCATGCA_site79]	9.84 ± 0.14
TTTATACTTTTAAATTGTACTATAAAAAGGAATACA [XGTACX_site2537]	11 ± 0.64
AAATATATATTCATGTGTACACACAAAAAAAAATAA [XGTACX_site4552]	11.6 ± 0.84
AAAAATTTTCAAGTGTGTACATATTTTCATTTAACA [XGTACX_site6186]	11.4 ± 0.88
AAGAAAATGTATATATGTACATACAATCAAAAGAAG [XGTACX_site3454]	11.3 ± 0.76
ATTAATAATGAAAAAAAACACACGGTACATTCAAAG [CACACA_site1302]	10.7 ± 0.4
TAAAATAAAAAAGTAGTACACACTTCACGATATTTT [CACACA_site3896]	11.6 ± 0.91
TTAAAAGTAAGCAAAGTGCATATAACAAAAGTAAAG	10.05 ± 0.064
AATATAAAACTTTAGAGTACTTATCATTAAAATATA [XGTACX_site4509]	11.2 ± 0.76
TTCATTTTCATATATTGTACAAAATTTTATAAGGTT [XGTACX_site4522]	10.8 ± 0.45

Sequence	gcPBM binding intensity (ln)
TTGTAAGAAAGACACACACACACATATAAATATGTA [CACACA_site6516]	10.1 ± 0.24
TATTTAAAATAATGTGCAAAAGAATAAATAAATAAA [TGCATGCA_negctrl_site194]	10.1 ± 0.13
ATATACACATATACATGTACAAATATATATACACAT [XGTACX_site2986]	11 ± 0.64
TTACTATTATTATTTTTTATTTTTATTTTATTTATT [TGCATGCA_negctrl_site269]	9.54 ± 0.25
CACTAAAAGAAACACACACACACACCCATATATATA [CACACA_site4151]	10.1 ± 0.17
TATATAAGAACTTTTACACACATGAAAATGTAGATA [CACACA_site7711]	9.96 ± 0.22
TATATATATATATATACACACATACAGATATATATT [CACACA_site4629]	10.2 ± 0.52
TTTATTTATTTTTGTTGTACACTTGTATATATTATT [XGTACX_site6486]	11.4 ± 0.8
ATTTTATATACACTTTGTACTTATTTTATTCTTCTT [XGTACX_site4200]	11.2 ± 0.68
TGTATATAATCGAGTGCACACACAAAAAAAAAGTGA [CACACA_site8417]	10.6 ± 0.33
TTCATGTCCTATTAATGTACTCTACACACATATAAG [XGTACX_site899]	11.3 ± 0.9
AAAAAAAAAAAAAAAACACACACATATATATATATA [CACACA_site8571]	10.2 ± 0.26
ATATATATATATAATACACACTAAAGTAACATAATA [CACACA_site5580]	10.2 ± 0.21
TACGGGAAAGATAAGAAACACACGGAAAATTAGACG [CACACA_site1661]	10.21 ± 0.035
TTTTTTAATACATATGCATGTTCAAGTACGAAAAAA [TGCATGCA_site641]	10.9 ± 0.56
TATTAAACTTGACACACACACACACGCATATATAAA [CACACA_site6496]	10.3 ± 0.26
TAATAAATATATTGAAGTACTTATAAAAAGCAATAT [XGTACX_site6262]	11.3 ± 0.79
TACGCAACCAAAAGTTGTACTAATTTTTTTTTTTTG [XGTACX_site7432]	11.2 ± 0.62
ATATATTTTATACATACACACATATAAATATTTTTT [CACACA_site7780]	10.065 ± 0.007
GGAACAAATAATATCACACATATATATATATATATA [CACACA_site5670]	9.95 ± 0.42
CCACTTAAAATAAAAAGTACATACAGGTGTTATACA [XGTACX_site8124]	11.4 ± 0.82
AAAAAAAAAAATATATTAAAATAAAAAATATTAACA [GTGCAC_negctrl_site13]	9.43 ± 0.13
